Data reported in PubChem BioAssay AID995 (National Center for Advancing Translational Sciences (NCATS), 2007).
The campaign covered roughly 72,000 compounds. About 710 (0.99%) were called active. The shares of active, inactive and inconclusive entries below differ from those in the screen. Calls follow the shape of the dose curve; as a rule, active = well fitted inhibition curve with a large enough effect; inconclusive = small, poorly fitted or top-dose-only effect; inactive = no such curve, though single readings can be large or run the other way. No potency is given beside an inconclusive call; the fits are too rough.

Assay: qHTS Assay for Inhibitors of the ERK Signaling Pathway using a Homogeneous Screening Assay; also: nearly all actives have a fitted effect of over 55% in size
Details: HEK293-V1b, vasopressin-stimulated pERK AlphaScreen; activity, negative = inhibition: at 57.5 µM (top of the series) unless noted
In short: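 HEK293 cells stably expressing V1b receptor, preincubated 30 min at 37 °C with compound, then stimulated 5 min with 25 nM vasopressin. Phospho-ERK by AlphaScreen SureFire after 5 h RT; normalized to DMSO and vasopressin; AC50 by Hill fit.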
% is scaled to controls: 0 for no effect and ±100 for the full control effect; potency is read from the fitted curve at half-maximal effect; tags tell the direction and shape of the fitted curve.

SMILES	Potency	activity, negative = inhibition
O=C(CSc1nnc(-c2cccs2)n1-c1ccccc1)NCc1ccc2c(c1)OCO2	inconclusive [inhibitor, partial curve, poor fit]	
Clc1ccc(NCc2nncn2-c2ccccc2)cc1	inconclusive [inhibitor, single point]	
CCc1ccccc1S(=O)(=O)Cc1ccc(C(=O)N2CCN(c3ccccc3OC)CC2)o1	inconclusive [inhibitor, partial curve]	
CCOC(=O)c1ccc(NC(=O)Cn2cccc2)cc1	inconclusive [inhibitor, single point]	
C=C(C)C1CC=C(CO)CC1 (stereo not given)		inactive: 22.5%
O=C1CC(N2CCN(c3nc4ccccc4s3)CC2)C(=O)N1Cc1cccs1 (stereo not given)	inconclusive [inhibitor, partial curve]	
CCOc1ccc(OCC)c(NC(=O)CSc2nc3c(c(=O)n(C)c(=O)n3C)n2CC)c1		inactive: -15.8%
CSc1nc(-c2ccccc2O)nc(-c2ccccc2O)n1	inconclusive [inhibitor, full curve, poor fit]	
Cc1ccc(O)c(-c2cc(C(=O)Nc3ccc(S(=O)(=O)N4CC(C)OC(C)C4)cc3)[nH]n2)c1 (stereo not given)	inconclusive [inhibitor, single point]	
COc1ccc(OC)c2[nH]c(=O)c(CCNS(=O)(=O)c3ccccc3)cc12		inactive: 12%
Cc1cc(=O)oc2cc(O)c(CN(C)CC(=O)O)cc12		inactive: -0.324% [at 11.5 µM]
COc1ccc(OC)c(C(=O)c2coc3ccc(O)c(CN4CCOCC4)c23)c1	inconclusive [inhibitor, partial curve, poor fit]	
CC(COc1ccccc1)NC(C)C(O)c1ccc(O)cc1 (stereo not given)	inconclusive [inhibitor, single point]	
C=CCn1c(CNC(=O)CCC)nc2ccccc21	inconclusive [inhibitor, partial curve]	
COc1ccc(-c2nnc(SCC#CCO)o2)cc1OC	inconclusive [inhibitor, single point]	
Cc1ccc(NCN2C(=O)C3C4C=CC(C4)C3C2=O)cc1 (stereo not given)		inactive: -0.91%
COc1ccc(C2C3=C(CC(C)(C)CC3=O)Oc3ncn(Cc4ccco4)c(=N)c32)cc1 (stereo not given)	inconclusive [inhibitor, partial curve]	
O=C(Nc1ccc(N2CCN(Cc3ccccc3)CC2)cc1)c1cccnc1	inconclusive [inhibitor, partial curve]	
c1ccc2c(Oc3ccc4c(c3)OCO4)nncc2c1		inactive: 6.16%
Cn1nc(-c2ccc(Cl)cc2)c2cc(C(=O)NCCCN3CCCC3)sc21	inconclusive [inhibitor, single point]	
CCOc1cc(C(=O)Nc2ccc3c(c2)OCO3)ccc1OC(F)F	active: 20 µM	
Cc1cc(C)n2c(SC/C(O)=C(\C#N)c3nc4ccccc4[nH]3)nnc2n1		inactive: 17.2%
O=C(c1ccccc1)N1CCN(CC#Cc2ccccc2)CC1	inconclusive [inhibitor, single point]	

SMILES	Potency	activity, negative = inhibition
COc1ccccc1C(=O)N1CCN(c2cccc(Cl)c2)CC1		inactive: -29.3%
CC(C)OC(=O)c1c(F)c(F)c(N2CCOCC2)c(F)c1F		inconclusive: -33.7% [inhibitor]
CC1=CCC(C(C)(C)NC(=O)c2ccccc2)C/C1=N\O (stereo not given)	inconclusive [inhibitor, single point]	
CSc1cccc(NC(=O)CN(c2ccc(C)cc2C)S(C)(=O)=O)c1	inconclusive [inhibitor, partial curve]	
CNC(=O)c1cc(S(=O)(=O)N(C)C)ccc1Cl		inconclusive: -31.2% [inhibitor]
Oc1ccc(-c2nc3ncccn3c2Nc2ccc3c(c2)OCCO3)cc1	inconclusive [inhibitor, partial curve]	
Cn1c(=O)c2c(nc(NCc3ccc4c(c3)OCO4)n2C)n(C)c1=O	inconclusive [inhibitor, partial curve]	
COc1cccc(-c2ccc3ncnc(N4CCNCC4)c3c2)c1		inactive: -18%
CCOC(=O)c1nn(-c2ccc(OC)cc2)c(=O)c2c(N)scc12	inconclusive [inhibitor, partial curve]	
c1ccc(-c2nn3c(Cn4cnc5ccccc54)nnc3s2)cc1	inconclusive [inhibitor, partial curve, poor fit]	
C/C(Cl)=C/Cn1c(N2CCCC2)nc2c1c(=O)n(C)c(=O)n2C	inconclusive [inhibitor, partial curve]	
Cc1cc(/C=N/n2cnnc2)c(C)n1-c1ccc(OCc2ccccc2F)cc1	inconclusive [inhibitor, single point]	
CCCCNc1c(C(=O)OCC)c(C)nc2c1cnn2CC	inconclusive [inhibitor, partial curve, poor fit]	
C=CCn1c(COc2cccc(C)c2)nnc1SCC(=O)NC(=O)NCc1ccco1		inactive: -14.1%
Cc1nc2ccccc2nc1CSc1nncs1	inconclusive [inhibitor, partial curve]	
COC(=O)c1cccc(C23CC4(C2)[C@H](CN(CC2CCCCC2)[C@@H]4c2ccccc2)C3c2ccc(Cl)nc2)c1 (stereo not given in full)		inactive: -3.06%
COc1ccc(CNc2ccnc(-c3ccoc3)n2)c(OC)c1	inconclusive [inhibitor, single point]	
CCOc1cc(C2C(C#N)=C(N)Oc3n[nH]c(-c4ccccc4)c32)ccc1O (stereo not given)	active: 15.8 µM	
CCCn1c(-c2ccc(F)cc2)nc2c(NCCN3CCCCC3)nc(C)nc21		inactive: -27%
CC1(C)Cc2nc3sc4c(SCC(=O)NCc5ccco5)ncnc4c3cc2CO1	inconclusive [inhibitor, partial curve]	
CCOC(=O)c1cccc(NC(=O)CCn2nnc3ccccc32)c1	inconclusive [inhibitor, partial curve]	
CCOC(=O)CCN1C(=O)[C@H]2[C@H]3[C@H](O)[C@H](O)C/C(=N/NC(=O)OCc4ccccc4)[C@H]3CC[C@@H]2C1=O		inactive: 6.8% [at 11.5 µM]
